# About 14,000 (4.5%) of roughly 310,000 compounds showed an effect of 50% or more. The effect is printed as a negative number. The list shows a part of the results.
# Biological target: human ether-à-go-go-related gene (hERG) potassium channel (human, UniProt Q12809)
# Test: primary screen, population patch clamp on CHO cells stably expressing hERG
# 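Also: peak tail current of the secondary pulse compared with the same well before compound.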
# human ether-à-go-go-related gene (hERG) potassium channel, sequence (Q12809 whole entry, looked up): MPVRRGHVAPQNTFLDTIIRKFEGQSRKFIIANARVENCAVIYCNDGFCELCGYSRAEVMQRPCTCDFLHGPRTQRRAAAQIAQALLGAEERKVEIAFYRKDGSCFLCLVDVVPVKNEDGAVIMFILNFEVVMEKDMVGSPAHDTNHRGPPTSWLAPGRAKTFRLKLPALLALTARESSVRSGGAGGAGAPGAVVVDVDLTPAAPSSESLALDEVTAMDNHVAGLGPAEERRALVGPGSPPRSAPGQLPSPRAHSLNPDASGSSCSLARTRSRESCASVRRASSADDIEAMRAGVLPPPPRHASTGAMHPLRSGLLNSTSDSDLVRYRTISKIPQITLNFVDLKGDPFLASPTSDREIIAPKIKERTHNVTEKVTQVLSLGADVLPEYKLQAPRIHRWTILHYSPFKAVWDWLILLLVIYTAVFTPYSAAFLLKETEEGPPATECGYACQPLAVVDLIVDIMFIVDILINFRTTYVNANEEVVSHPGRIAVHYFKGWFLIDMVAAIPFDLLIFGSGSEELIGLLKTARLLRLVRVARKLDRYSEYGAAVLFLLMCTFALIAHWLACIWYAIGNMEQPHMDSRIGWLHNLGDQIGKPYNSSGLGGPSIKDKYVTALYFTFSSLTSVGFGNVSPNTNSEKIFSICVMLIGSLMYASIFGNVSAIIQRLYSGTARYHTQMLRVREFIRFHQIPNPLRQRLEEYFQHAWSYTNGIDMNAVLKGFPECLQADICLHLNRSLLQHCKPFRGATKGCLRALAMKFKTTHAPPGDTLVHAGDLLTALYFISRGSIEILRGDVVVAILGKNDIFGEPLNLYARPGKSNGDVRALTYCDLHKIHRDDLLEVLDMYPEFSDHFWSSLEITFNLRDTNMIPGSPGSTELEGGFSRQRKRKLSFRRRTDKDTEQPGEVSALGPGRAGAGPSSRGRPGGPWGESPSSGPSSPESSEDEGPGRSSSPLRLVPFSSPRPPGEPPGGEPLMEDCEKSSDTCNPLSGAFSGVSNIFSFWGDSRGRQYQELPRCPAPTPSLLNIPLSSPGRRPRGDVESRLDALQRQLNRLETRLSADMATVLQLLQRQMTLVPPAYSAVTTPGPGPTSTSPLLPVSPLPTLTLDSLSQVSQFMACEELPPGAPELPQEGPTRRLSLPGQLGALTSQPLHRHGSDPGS
row,SMILES,"hERG current change (%, negative = inhibition) at 10uM"
1,CCOC(=O)c1cc(C)nn1-c1nc(Cl)cc(OC)n1,-38.3%
2,CCOC(=O)C(NC(=O)c1ccccc1)(OCc1ccccc1)C(F)(F)F (stereo not drawn),-6.55%
3,N#Cc1ccc(/C=N/NC(=S)Nc2ccc(S(=O)(=O)N3CCOCC3)cc2)cc1,28.2%
4,CCCC(c1nnnn1CCOC)N1CCN(c2nc3ccccc3s2)CC1 (stereo not drawn),-66.2%
5,Cc1ccc(C)c(S(=O)(=O)NCC(=O)NCc2ccco2)c1,3.24%
6,COc1ccc(-n2cc(CNCCc3nc(C)cc(C)n3)c(-c3ccccc3Cl)n2)cc1,-62.6%
7,O=C(Cc1c[nH]c2ccccc12)NCC(=O)Nc1ccc(F)c(F)c1F,1.04%
8,COc1cc2ccccc2cc1C(=O)N1CCN(c2ccccn2)CC1,-34.4%
9,CCC(C)C(NC(=O)c1ccccc1NC(=O)c1ccc(OC)cc1)C(=O)NCc1ccco1 (stereo not drawn),8.78%
10,Cc1[nH]c2ccccc2c1C(=O)CSc1ccc(Cl)cc1,17.6%
11,CC(C)(C)NCCCOc1ccc(Cl)cc1C(C)(C)C.O=C(O)C(=O)O,1.96%
12,C=CCn1c(O)c(N=NC(=S)Nc2ccc(OC)c(Cl)c2)c2ccccc21,39.1%
13,CCOC(=O)c1ccc[n+](CC(=O)Nc2cc(C(F)(F)F)ccc2Cl)c1.[Cl-],2.93%
14,COc1ccc2cc(CO)c(Cl)nc2c1,10.5%
15,Cc1ccc(S(=O)(=O)N2CCCC(C(=O)NCc3ccccc3F)C2)cc1 (stereo not drawn),25.1%
16,COc1ccc(NC(=O)c2ccc3snnc3c2)cc1,9.11%
17,Clc1ccc2[nH]cc(-c3nnnn3-c3ccc4ccccc4c3)c2c1,12.6%
18,COc1ccc(CN(C#N)c2nc(SC)nc(N(C)C)n2)cc1,-8.55%
19,Nc1c(C(=O)Nc2cccc(C(=O)O)c2)sc2nc3c(cc12)CCCC3,12.1%
20,COc1ccc(OC)c(S(=O)(=O)CC(O)COc2ccccc2Cl)c1 (stereo not drawn),-1.82%
21,Cc1cccc([C@@H]2[C@@H]3C(=O)N(Cc4ccccc4)C(=O)[C@@H]3[C@]3(Cc4ccccc4)C(=O)N(c4ccccc4)C(=O)N23)c1,12.4%
22,O=C(c1cnccn1)N1CCN(S(=O)(=O)c2ccc3ccccc3c2)CC1,-9.29%

row,SMILES,"hERG current change (%, negative = inhibition) at 10uM"
1,COc1ccc(CCNC(=O)CC(Cc2ccccc2)C(=O)O)cc1OC (stereo not drawn),4.4%
2,CCC(=O)N1CCN(c2ccc(NC(=O)c3ccc4c(c3)OCCO4)cc2)CC1,1.98%
3,CCC(=O)c1ccccc1OCCN1CCN(CC)CC1.O=C(O)C(=O)O,-13.7%
4,Nn1c(SCC(=O)Nc2ccc(N3CCOCC3)cc2)nnc1-c1cccc(F)c1,9.93%
5,CC(C)C1OC2(C)OC(=N)C1(C#N)C(C#N)(C#N)C2c1ccccc1 (stereo not drawn),2.05%
6,Oc1ccc(N=Nc2cccc(C(F)(F)F)c2)cc1C=Nc1ccc(N2CCOCC2)cc1,15.6%
7,O=C(NC1=NCCS1)c1ccc(C(F)(F)F)cc1,-5.26%
8,O=C1NC(=O)N(Cc2ccc(F)cc2)C(=O)/C1=C\C=C\c1ccco1,1.97%
9,CCc1nnc(NS(=O)(=O)c2ccc(NC(=S)NC(=O)c3cccnc3)cc2)s1,-5.99%
10,CCCn1c(N2CCC(Cc3ccccc3)CC2)nc2c1c(=O)[nH]c(=O)n2C,-51.2%
11,Cc1ccc(CNC(=O)CSc2n[nH]c(N)n2)cc1,18.5%
12,Cc1ccc(Oc2ccc(S(=O)(=O)N3CCOCC3)cc2C(N)=O)cc1C,-29.6%
13,O=C(/C=C/c1cccc([N+](=O)[O-])c1)NCCSCc1ccccc1Cl,-11.5%
14,O=C(CNc1ccccc1)N/N=C/c1c[nH]c2ccccc12,-16.1%
15,Cc1ccccc1Cn1cc(S(=O)(=O)c2ccc(C(C)C)cc2)c(=O)c2cc3c(cc21)OCO3,-20.2%
16,O=C(CCSc1ccc(Cl)cc1)NN=C1CCCCCC1,-11.4%
17,Cc1ccccc1-c1cn(-c2ccccc2)c(=S)[nH]1,-10.1%
18,CC12CCC(C(=O)Nc3ccccc3N3CCOCC3)(CC1=O)C2(C)C (stereo not drawn),-3.18%
19,CN(C)c1nnnn1-c1ccccc1Oc1ncc(C(F)(F)F)cc1Cl,-5.73%
20,COc1ccc(NC(=O)Nc2cc3oc4ccccc4c3cc2OC)cc1,12.2%
21,O=c1[nH]cnc(O)c1C(c1ccc([N+](=O)[O-])cc1)c1c(O)nc[nH]c1=O,16.7%
22,Cc1ccc(C)c(OCCCCn2cnc3ccccc3c2=O)c1,6.86%

row,SMILES,"hERG current change (%, negative = inhibition) at 10uM"
1,COc1ccc(C(=O)NC(=S)Nc2cccnc2)cc1OC,12.9%
2,Cc1c(NC(=S)Nc2ccc(Cl)cc2)c(=O)n(-c2ccccc2)n1C,-7.99%
3,CN(C(=O)N1CCN(S(=O)(=O)c2ccccc2)CC1)c1ccccc1,13.8%
4,O=C(CNC(=O)c1ccc(Br)cc1)NCC(=O)OCC(=O)c1ccc(F)cc1,9.12%
5,CNC(=S)N(Cc1ccc(OC)cc1)C1CC(=O)N(c2ccc(OC)cc2)C1=O (stereo not drawn),-33%
6,Cc1ccc(Cn2c(S(=O)(=O)O)nc3ccccc32)cc1,11.3%
7,C/C(CCC(C)C)=N\Nc1ccc(S(N)(=O)=O)cc1[N+](=O)[O-],-26.6%
8,COCCCNC(=O)c1ccc(Cn2c(=O)[nH]c3ccccc3c2=O)cc1,15.7%
9,CCN1C(=O)[C@@H]2Cc3c([nH]c4ccccc34)C(c3ccc(OC)cc3)N2C1=S (stereo partly drawn),12.2%
10,CCc1oc2c(C)c(O)ccc2c(=O)c1-c1ccc2ccccc2n1,5.95%
11,Cc1ccc(C2=NN=C(NC(=O)CSc3nnc4c5ccccc5n(C)c4n3)SC2)cc1,8.81%
12,Fc1ccccc1Nc1nc2ccccc2n2nnnc12,7.8%
13,O=C(Nc1cccnc1)c1ccc(N2CCCC2)c([N+](=O)[O-])c1,2.01%
14,CCOc1ccc(CNC(=O)CCCOc2cc(=O)n(C)c3ccccc23)cc1,-22%
15,CN(CC(=O)Nc1ccc(F)cc1)C(=O)COC(=O)COc1ccc(C#N)cc1,-34.4%
16,CCOc1ccc(NC(=S)Nc2cccc3ccccc23)cc1,17.9%
17,CC(C)C(=O)Nc1ccc2c(c1)nc(CCN1CCN(c3ccccc3)CC1)n2C,-40.4%
18,CCc1onc(C)c1C(=O)Nc1ccc(N2CCOCC2)cc1,15%
19,Cc1cc(C(=O)Nc2ccncc2)ccc1[N+](=O)[O-],-8.79%
20,CC1CCN(c2ccc(C(=O)NCc3cccs3)cn2)CC1,4.25%
21,CC1(c2ccc3noc(-c4cccc(F)c4)c3c2)OCCO1,11.5%
22,COC(=O)c1cn(C(=O)c2cc(OC)c(OC)c(OC)c2)c2ccccc12,4.7%

row,SMILES,"hERG current change (%, negative = inhibition) at 10uM"
1,CCCN(CCC)c1nc(N)nc(-c2cc(Cl)ccc2OC)n1,14.1%
2,COc1ccc(CNC(=O)Cc2c(C(=O)O)[nH]c3ccccc23)cc1,2.83%
3,Cc1cccn2c(=O)c3cc(C(=O)O)n(C)c3nc12,6.65%
4,CCOc1cccc2sc(N(CCN(CC)CC)C(=O)c3cccc([N+](=O)[O-])c3)nc12.Cl,-75%
5,O=C(NCCS(=O)(=O)c1ccc(Br)cc1)c1ccc(Cl)cc1,-2.62%
6,CS(=O)(=O)N1CCN(c2ccc(C(=O)NC3C4CC5CC(C4)CC3C5)cc2[N+](=O)[O-])CC1 (stereo not drawn),-13.5%
7,CCNC(=S)N/N=C/c1c(C)nn(-c2cccc(Cl)c2)c1Cl,-4.28%
8,O=Cc1ccc(-n2nncc2-c2ccc([N+](=O)[O-])cc2)cc1,-67.3%
9,CCc1ccc(N2CN(CCc3ccccc3)CNC2=S)cc1,16.3%
10,Nc1ccc(C(=O)Nc2cccc3ncccc23)cc1,15.5%
11,Nc1c2c(nc3ccc(Br)cc13)N(c1ccccc1)CC2.O=C(O)C(=O)O,-21.3%
12,CCN1C(=O)NC(c2ccccc2)(c2ccccc2)C1=O,14%
13,Cn1c(=O)c(C(=O)NCC2CCCO2)c(O)c2ccccc21 (stereo not drawn),-18.8%
14,Cn1nnc2cc(C(=O)N3CCCCCC3)ccc21,-9.42%
15,COC(=O)C1=C(C)NC2=C(C(=O)CCC2)C1c1cccc(C)n1 (stereo not drawn),-8.04%
16,COc1ccc(C(=O)c2c(-c3ccsc3)oc3ccc(-c4ccc(OC)cc4)cc23)cc1,1.76%
17,COc1ccc(NC(=O)C2CCCN(c3cnccn3)C2)cc1 (stereo not drawn),12.8%
18,O=C(Nc1c(-c2ccccc2)nc2ccc(Cl)cn12)c1cccs1,8.37%
19,CCCCn1c(N)c(N(CCOC)C(=O)C2CCN(c3ncnc4sc(C)c(C)c34)CC2)c(=O)[nH]c1=O,1.65%
20,C/C(N)=C(/C#N)C(=O)CSc1nnc(COc2ccccc2Cl)o1,9.3%
21,COC(=O)c1cc(NS(=O)(=O)c2ccc(N3CCOCC3)c(N)c2)cc(C(=O)OC)c1,-0.151%

# Source: article PMC4336329 (PLoS ONE, 2015)
